{"source": "PubChem BioAssay AID1346428", "about": "(National Center for Advancing Translational Sciences (NCATS), 2018)", "note": "The whole screen tested about 48,000 compounds, of which about 1,200 (2.5%) were called active. Another 2% or so got no clear call; they are omitted.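 The calls were made as follows: active = activation of at least 60% and not above a set upper limit (about 1 call in 100 departs from these limits); inconclusive = activation of 40% to 60%, or above that upper limit; inactive = activation under 40%.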 The list shows a part of the results.", "data": [{"target": "Probable G-protein coupled receptor 32 (Homo sapiens) (UniProt O75388)", "sequence (O75388 whole entry, looked up)": "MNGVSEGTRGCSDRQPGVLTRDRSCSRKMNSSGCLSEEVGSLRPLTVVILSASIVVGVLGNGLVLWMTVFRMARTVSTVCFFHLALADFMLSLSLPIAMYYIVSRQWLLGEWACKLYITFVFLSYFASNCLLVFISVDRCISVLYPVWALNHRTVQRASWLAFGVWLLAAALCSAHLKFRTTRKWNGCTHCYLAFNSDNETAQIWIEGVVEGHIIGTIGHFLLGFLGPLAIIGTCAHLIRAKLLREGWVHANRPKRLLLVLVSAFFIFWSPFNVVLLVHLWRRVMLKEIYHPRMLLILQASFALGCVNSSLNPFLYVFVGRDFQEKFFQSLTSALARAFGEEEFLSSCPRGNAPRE", "assay": "qHTS for Agonists of Human Resolvin D1 Receptor DRV1; also: 0% is about no effect", "settings": "CHO-K1 GPR32 beta-arrestin PathHunter luminescence, 90 min; at 76.9 µM; hits give high values; zero percent set by DMSO-only wells", "method_in_brief": "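PathHunter beta-arrestin recruitment in CHO-K1 cells stably expressing ProLink-tagged GPR32. Cells were exposed to compound for 90 min at 37 C, then chemiluminescence was read after 1 h detection at ambient temperature; DMSO served as basal control.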", "values": [{"compound": "Cc1[nH]c2ccccc2c1SCCNC(=O)c1ccc(F)cc1", "activation": "inactive: -11.5%"}, {"compound": "Cn1cc(-c2cc3n(n2)CCC(=O)N3CC(=O)NCc2ccccc2)c2ccccc21", "activation": "inactive: -17.5%"}, {"compound": "COc1ccc(N(C(=O)c2cc(OC)c(OC)c(OC)c2)S(=O)(=O)c2ccc(C)cc2)cc1", "activation": "inactive: -3.45%"}, {"compound": "Cc1cccc(Cn2c(SCc3ccc(C(=O)NCc4cccs4)cc3)nc3ccncc32)c1", "activation": "inactive: 1.33%"}, {"compound": "Cc1ccccc1C(=O)Nc1ccc2nc(SCC(=O)N(C)c3ccccc3)sc2c1", "activation": "inactive: -1.1%"}, {"compound": "CN(C)C1(CNC(=O)COc2cccc(Cl)c2)CCCCC1", "activation": "inactive: -5.13%"}, {"compound": "O=c1cc(N2CCN(c3ccc(F)cc3)CC2)[nH]c(=O)n1-c1cccc(Br)c1", "activation": "inactive: -0.0223%"}, {"compound": "CC(C)c1ccc(Cc2cnc(NC(=O)c3ccc4c(c3)CC(c3ccccc3)OC4=O)s2)cc1", "note": "(stereo not drawn)", "activation": "inactive: 30.5%"}, {"compound": "Cc1cccc(C(=O)NCc2cn3cccc(C)c3n2)c1", "activation": "inactive: 3.09%"}, {"compound": "Cc1ccnc(NC(c2cc(C)ccc2O)c2ccc3cccnc3c2O)c1", "note": "(stereo not drawn)", "activation": "inactive: -10.9%"}, {"compound": "COc1ccc(-c2cn3c(n2)sc2cc(C(=O)NC4CCCCC4)ccc23)cc1", "activation": "inactive: -2.61%"}, {"compound": "Cc1ccc(CNC(=O)C2CCN(S(=O)(=O)c3c(C)noc3/C=C/c3ccccc3F)CC2)o1", "activation": "inactive: -19%"}, {"compound": "COc1ccc(S(=O)(=O)N(C(=O)c2ccncc2)c2ccc3oc(C)c(C(C)=O)c3c2)cc1", "activation": "inactive: 12.1%"}, {"compound": "Cc1ccc(C)c(NC(=O)C(NS(=O)(=O)c2ccc3c(c2)CCC(=O)N3)c2ccccc2)c1", "note": "(stereo not drawn)", "activation": "inactive: 7.35%"}, {"compound": "CC[C@H](C)NC(=O)CCCc1nnc2n(CCC(C)C)c(=O)c3sccc3n12", "activation": "inactive: -4.58%"}, {"compound": "COc1ccccc1OC(C)C(=O)N1CCN(CCc2ccccn2)CC1", "note": "(stereo not drawn)", "activation": "inactive: -1.53%"}, {"compound": "Cc1ccc(-n2c(=O)c3cccnc3n2CC(=O)Nc2ccccc2C(F)(F)F)cc1C", "activation": "inactive: -16.8%"}, {"compound": "COc1cccc(CNC(=O)C2CCCN(S(=O)(=O)c3cn(C)cn3)C2)c1", "note": "(stereo not drawn)", "activation": "inactive: -11.4%"}, {"compound": "CCC(C)n1c(=N)c(C(=O)NC2CCCCC2)cc2c(=O)n3cc(C)ccc3nc21", "note": "(stereo not drawn)", "activation": "inactive: 5.51%"}, {"compound": "CCOC(=O)C1CCCN(C(=O)Cn2nc(C)n3c(cc4c(OC)cccc43)c2=O)C1", "note": "(stereo not drawn)", "activation": "inactive: -14.3%"}, {"compound": "COc1ccccc1N1CCN(Cc2cc(COC(C)C)c3cccnc3c2O)CC1", "activation": "inactive: -5.87%"}, {"compound": "CC(C)c1ccc(CNCCSc2nnnn2C)cc1", "activation": "inactive: -2.64%"}, {"compound": "Cc1ccc(NC(=O)CSc2nc3c(c(=O)[nH]2)CN(Cc2ccc4c(c2)OCO4)CC3)cc1C", "activation": "inactive: 27.7%"}, {"compound": "Cn1c(=O)c2c(SCC(=O)NCc3ccco3)nc(-c3ccccc3Cl)nc2n(C)c1=O", "activation": "inactive: -2.03%"}, {"compound": "CCOC(=O)c1ccc(NC(=O)c2oc3ccc4c(c3c2C)C(=O)CC(C)(CC)O4)cc1", "note": "(stereo not drawn)", "activation": "inactive: -2.31%"}, {"compound": "CCOC(=O)C1CCCN(c2ncnc3c2cnn3-c2ccc(C)c(Cl)c2)C1", "note": "(stereo not drawn)", "activation": "inactive: -8.29%"}, {"compound": "Cc1nnc(NC(=O)c2nc(S(=O)(=O)Cc3ccccc3)ncc2Cl)s1", "activation": "active: 81%"}, {"compound": "CCOc1ccc(NC(=O)C(C)Sc2nnc3cc(C)c4ccccc4n23)cc1", "note": "(stereo not drawn)", "activation": "inactive: 1.99%"}, {"compound": "CC(=O)Nc1c(C)nn(-c2ccccc2)c1N1CCC(C(=O)Nc2cc(Cl)ccc2C)CC1", "activation": "inactive: -8.79%"}, {"compound": "CCc1ccccc1NC(=O)c1cc(S(=O)(=O)NCCc2ccc(OC)c(OC)c2)ccc1F", "activation": "inactive: -12%"}, {"compound": "CCCOc1ccc(C2c3c(-c4ccccc4O)n[nH]c3C(=O)N2Cc2ccncc2)cc1OCC", "note": "(stereo not drawn)", "activation": "inactive: -14.1%"}, {"compound": "Cc1cccc(NC(=O)C(=O)NCC(c2cccnc2)N2CCOCC2)c1", "note": "(stereo not drawn)", "activation": "inactive: 11.1%"}, {"compound": "O=C(O)[C@@H]1CSCN1", "activation": "inactive: 3.43%"}, {"compound": "C=C[C@@]1(C)CC(=O)[C@]2(O)[C@@]3(C)[C@@H](O)CCC(C)(C)[C@@H]3[C@H](O)[C@H](OC(C)=O)[C@@]2(C)O1", "activation": "inactive: 6.82%"}, {"compound": "COc1ccc(C)cc1NC(=O)C(=O)NCCc1csc(-c2ccc(C)cc2)n1", "activation": "inactive: -8.4%"}, {"compound": "Cc1ccc(CCNC(=O)C2CCCN(Cc3nc(-c4cccc(Cl)c4)oc3C)C2)cc1", "note": "(stereo not drawn)", "activation": "inactive: -5.87%"}, {"compound": "CCOC(=O)c1c(C)c(C(=O)NCCc2ccc(OC)cc2)c(C)n1C", "activation": "inactive: 6.15%"}, {"compound": "CCc1nn(CC(=O)Nc2cccc(C)c2C)c(=O)c2cc3sccc3n12", "activation": "inactive: -16.3%"}, {"compound": "Cc1cccc(CNC(=O)c2cnc3sc(N4CCCCC4)nn3c2=O)c1", "activation": "inactive: 1.02%"}, {"compound": "CN(C(=O)CSc1cn(CC(=O)N2CCCCC2)c2ccccc12)c1ccccc1", "activation": "inactive: 12.1%"}, {"compound": "O=C(Cc1ccc(F)cc1)N1CCC(c2nc3c(nnn3Cc3ccc(Cl)cc3)c(=O)[nH]2)CC1", "activation": "inactive: -10.2%"}, {"compound": "COc1ccc(/C=C/c2nc(C#N)c(N3CCN(c4ccccc4)CC3)o2)cc1OC", "activation": "inactive: -10.4%"}, {"compound": "COc1ccc(-c2noc(C3CC(=O)N(c4cc(C)cc(C)c4)C3)n2)cc1", "note": "(stereo not drawn)", "activation": "inactive: -9.24%"}, {"compound": "CCC(Oc1ccccc1)C(=O)Nc1ccccc1OCc1cc(=O)n2ccccc2n1", "note": "(stereo not drawn)", "activation": "inactive: -9.85%"}, {"compound": "CN1CCN(CCCNC(=O)c2cnn(-c3ccccc3)c2C2CCN(C(=O)OC(C)(C)C)CC2)CC1", "activation": "inactive: -0.177%"}, {"compound": "CCC(C)NC(=O)c1ccc2c(c1)N(Cc1ccccc1)C(=O)c1ccccc1S2(=O)=O", "note": "(stereo not drawn)", "activation": "inactive: -78.7%"}, {"compound": "Cc1ccc2nc(-c3ccccn3)c(Nc3ccc(F)cc3)n2c1", "activation": "inactive: -92.8%"}, {"compound": "CC1=C(C(=O)Nc2ccc(Cl)cc2)C(C(C)C)n2nc(SCc3cccc(C)c3)nc2N1", "note": "(stereo not drawn)", "activation": "inactive: 21.2%"}, {"compound": "NC(=O)c1cc(S(=O)(=O)NCc2ccccc2)cs1", "activation": "inactive: -9.8%"}, {"compound": "COc1cccc(-c2nc3c(c(SCc4ccccc4)n2)Cc2c(CO)cnc(C)c2O3)c1", "activation": "inactive: 31.4%"}, {"compound": "CCOc1ccc(CCNC(=O)CN2CCN(Cc3ccc(F)cc3Cl)C2=O)cc1OCC", "activation": "active: 75.4%"}, {"compound": "C=CCc1c(C)nc2nc(SCC(=O)Nc3ccccc3CC)nn2c1C", "activation": "inactive: -12.1%"}, {"compound": "CN(C(=O)CCNC(=O)Cn1cnc2ccccc2c1=O)c1ccccc1F", "activation": "inactive: 5.38%"}]}]}
